In PubChem BioAssay (NCATS):
Where “and” joins values, the source holds several entries; their conditions need not be identical. Equal values may be shown once. Inconclusive means that the source gave no clear call. Such entries were picked first, then a sample of the others. Where the call is inconclusive, the potency comes from a doubtful curve fit. Calls of active or inactive are those of the source. Calls come from the whole dose curve; as a rule, active = well fitted cell-killing curve with a large enough effect; inconclusive = small, poorly fitted or top-dose-only effect, or effect the other way; inactive = no such curve, though single readings can be large or run the other way.

Experiments:
[1] = Viability qHTS for spleen associated tyrosine kinase inhibitor (SYKi) naive MV4-11 cells (AID 1963823); settings: MV4-11 AML viability, CellTiter-Glo luminescence, 72 h; viability (% of control): at 45 µM (top of the series); note: nearly all actives have a fitted effect of over 40% in size
How it was run: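 CellTiter-Glo luminescence, 10 min room-temperature incubation, gave viability. Cells: naive MV4-11 (500/well), treated 72 hr at 37 C, 5% CO2.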

[2] = Viability qHTS for spleen associated tyrosine kinase inhibitor (SYKi) drug resistant MV4-11 cells (AID 1963824); settings: SYKi-resistant MV4-11 viability, CellTiter-Glo, 72 h; series mostly up to 45 µM; note: nearly all actives have a fitted effect of over 35% in size
How it was run: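 CellTiter-Glo luminescence, read 10 min after reagent addition, reports viability after a 72 hr compound exposure. Cells are an MV4-11 line made resistant to SYK inhibition, seeded at 500 per well onto compound-containing plates.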
Potency is the fitted concentration of half-maximal effect; tags give direction and shape of the fitted curve.

| SMILES | Potency [1] | Potency [2] | viability (% of control) [1] | viability, % of control [2] |
| --- | --- | --- | --- | --- |
| Cc1nc(C#Cc2ccnc(Cl)c2)c(C)n1-c1ccc(F)cc1 | active: 8.2 µM | active: 8.2 µM |  |  |
| CC[C@H]1OC(=O)[C@H](C)[C@@H](O[C@H]2C[C@@](C)(OC)[C@@H](O)[C@H](C)O2)[C@H](C)[C@@H](O[C@@H]2O[C@H](C)C[C@H](N(C)C)[C@H]2O)[C@](C)(O)C[C@@H](C)C(=O)[C@H](C)[C@H]2OC(=O)O[C@@]21C | inconclusive: 14.6 µM [cytotoxic, partial curve, poor fit] | inconclusive: 11.6 µM [cytotoxic, partial curve] |  |  |
| COC(=O)CC[C@@H](C)C1CCC2C3CCC4C[C@H](OC(C)=O)CCC4(C)C3C[C@H](O)C21C (some centres undefined) | inconclusive: 13 µM [cytotoxic, partial curve] | inconclusive: 18.4 µM [cytotoxic, partial curve, poor fit] |  |  |
| CC1(C)CC[C@]2(C(=O)O)CC[C@]3(C)C(=CCC4[C@@]5(C)CC[C@H](O)C(C)(C)C5CC[C@]43C)C2C1 (some centres undefined) | inconclusive: 3.17 µM [cytotoxic, full curve, poor fit] | inconclusive: 4.47 µM [cytotoxic, partial curve] |  |  |
| COc1cc2c(cc1OC)CN(C(=O)/C=C/c1c(-c3ccccc3)n(C)c3ncccc13)CC2 | active: 2.59 µM | active: 3.66 µM |  |  |
| CC1OC(OC2C(OC3C(O[C@H]4CC[C@@]5(C)C(CC[C@]6(C)C5CC=C5C7CC(C)(C)CC(O)[C@]7(C)CC[C@]56C)C4(C)C)OC(C(=O)O)C(O)C3O)OCC(O)C2O)C(O)C(O)C1O (some centres undefined) |  |  | inactive: 90.6% [at 9.25 µM] | inactive: 94.4% [at 9.25 µM] |
| CC(=O)Nc1cccc2c1c(Sc1ccc(Cl)cc1)c(C)n2CC(=O)O | inactive | inactive |  |  |
| CC1OC(OC2C(O)C(C(=O)O)OC(OC3CCC4(C)C(CCC5(C)C4C=CC4=C6CC(C)(C)CC(O)C6(C)CCC45C)C3(C)C)C2OC2OCC(O)C(O)C2O)C(O)C(O)C1O (centres undefined) |  |  | inactive: 89.1% [at 9.25 µM] | inactive: 97.4% [at 9.25 µM] |
| CC[C@@H](C)[C@H]1C(=O)O[C@H](C(C)C)C(=O)N(C)[C@@H](C(C)C)C(=O)O[C@H](C(C)C)C(=O)N(C)[C@@H](C(C)C)C(=O)O[C@H](CC(C)C)C(=O)N1C | active: 1.53 µM | inconclusive: 0.862 µM [cytotoxic, partial curve, poor fit] |  |  |
| CN/C(=C\[N+](=O)[O-])NCCSCc1csc(CN(C)C)n1 | inconclusive: 0.0009 µM | inconclusive: 0.0009 µM |  |  |
| COc1ccccc1N1CCN(CCCCNC(=O)c2ccc(-c3ccc(C(C)=O)cc3)cc2)CC1 | inactive | inconclusive: 0.0119 µM [cytotoxic, full curve, poor fit] |  |  |
| OC(CCN1CCCCC1)(c1ccccc1)c1ccccc1 | inconclusive: 33.5 µM [cytotoxic, single point] | inconclusive: 21.1 µM [cytotoxic, single point] |  |  |
| CCC[C@H](NC(=O)[C@@H]1[C@H]2CCC[C@H]2CN1C(=O)[C@@H](NC(=O)[C@@H](NC(=O)c1cnccn1)C1CCCCC1)C(C)(C)C)C(=O)C(=O)NC1CC1 | inconclusive: 6.61 µM [cytotoxic, partial curve] | inconclusive: 8.33 µM [cytotoxic, partial curve] |  |  |
| C=CC(=O)N1CC(N2CCN(C(=O)CNc3cc(C4CC4)c(Cl)cc3O)CC2)C1 | inconclusive: 8.2 µM [cytotoxic, partial curve] | inconclusive: 13 µM [cytotoxic, partial curve] |  |  |
| CC12CCC(C(OC3OC(COC4OCC(O)(CO)C4O)C(O)C(O)C3O)C1)C(C)(C)O2 (centres undefined) | inactive | inactive |  |  |
| C[C@@H]1O[C@@H](O[C@H]2[C@H](OC(=O)[C@]34CCC(C)(C)C[C@H]3C3=CCC5[C@@]6(C)C[C@H](O)[C@H](O[C@@H]7O[C@H](CO)[C@@H](O[C@H]8OC[C@](O)(CO)[C@H]8O)[C@H](O)[C@H]7O)[C@@](C)(CO)C6[C@H](O)C[C@@]5(C)[C@]3(C)C[C@H]4O)OC[C@H](O)[C@@H]2O)[C@H](O)[C@H](O)[C@H]1O[C@@H]1OC[C@@H](O)[C@H](O[C@@H]2OC[C@](O)(CO)[C@H]2O)[C@H]1O (some centres undefined) | inconclusive: 4.36 µM [cytotoxic, single point] | inconclusive: 6.16 µM [cytotoxic, single point] |  |  |
| COC(=O)c1ccccc1O[C@@H]1O[C@H](CO)[C@@H](O)[C@H](O)[C@H]1O[C@@H]1O[C@@H](C)[C@H](O)[C@@H](O)[C@H]1O | inactive | inactive |  |  |
| O=C1C(CCS(=O)c2ccccc2)C(=O)N(c2ccccc2)N1c1ccccc1 (centres undefined) | inconclusive: 29.9 µM [cytotoxic, single point] | inconclusive: 29.9 µM [cytotoxic, single point] |  |  |
| OC1(c2ccc(Cl)cc2)CCNCC1 | inactive | inactive |  |  |

| SMILES | Potency [1] | Potency [2] | viability (% of control) [1] | viability, % of control [2] |
| --- | --- | --- | --- | --- |
| CC(C)(O)/C=C/C1=CC(=O)[C@@](C)(O)C[C@H]1O | inactive | inconclusive: 3.66 µM [cytotoxic, partial curve, poor fit] |  |  |
| CCOc1cc(C(=O)N2CCC(N3CCN(C)CC3)CC2)ccc1Nc1ncc2c(n1)N(C1CCCC1)c1ccccc1C(=O)N2C | active: 651 nM and active: 1.05 µM | active: 651 nM and active: 934 nM |  |  |
| COc1ccc2nc(S(=O)(=O)Cc3ncc(C)c(OC)c3C)[nH]c2c1 | inconclusive: 29.1 µM [cytotoxic, single point] | inconclusive: 23.1 µM [cytotoxic, single point] |  |  |
| C/C=C(/C)C(=O)OC1CC(C)(C)CC2C3=CCC4C5(C)CCC(OC6OC(C)C(OC7OC(C(=O)O)C(O)C(OC8OC(CO)C(O)C(O)C8OC8OC(CO)C(O)C(O)C8O)C7O)C(O)C6O)C(C)(C)C5CCC4(C)C3(C)C(OC(=O)/C=C/C=C/C=C/CCC)C(OC(C)=O)C12CO (centres undefined) |  |  | inactive: 68.8% [at 9.25 µM] | inactive: 73.3% [at 9.25 µM] |
| C=C1C(=O)O[C@@H]2/C=C(\C)CC/C=C(\C(=O)O[C@@H]3O[C@H](CO)[C@@H](O)[C@H](O)[C@H]3O)CC[C@@H]12 | inactive | inconclusive: 6.32 µM [cytotoxic, partial curve, poor fit] |  |  |
| CC(=O)NC(CCC(=O)O)C(=O)NCCc1ccc(O)cc1 (centres undefined) | inconclusive: 6.51 µM [cytotoxic, partial curve, poor fit] | inactive |  |  |
| O=C(NCCCN1CCOCC1)c1cnn2c(-c3ccccc3)cc(-c3ccccc3)nc12 | inconclusive: 0.184 µM [cytotoxic, single point] | inconclusive: 20.6 µM [cytotoxic, partial curve, poor fit] |  |  |
| CC(C)CC(=O)O[C@@H]1OC=C(CO[C@@H]2O[C@H](CO)[C@@H](O)[C@H](O)[C@H]2O)[C@H]2[C@@H]3O[C@H]3[C@@](O)(CO)[C@@H]12 | inactive | inactive |  |  |
| O=[N+]([O-])c1ccc(CNc2nc(NCc3cccc(C(F)(F)F)c3)nc3nc[nH]c23)cc1 | inconclusive: 29.1 µM [cytotoxic, single point] | inconclusive: 20.6 µM [cytotoxic, partial curve] |  |  |
| C[C@@H]1O[C@@H](O[C@@H]2\C=C/C=C\C=C/C=C\C[C@H](C)OC(=O)/C=C\[C@H]3O[C@@H]3C[C@H](O)C[C@]3(O)C[C@@H](O)[C@@H](C(=O)O)[C@H](C2)O3)[C@H](O)[C@H](N)[C@@H]1O | inconclusive: 16.6 µM [cytotoxic, partial curve, poor fit] | inconclusive: 1.61 µM [cytotoxic, full curve, poor fit] |  |  |
| COc1cc2ncnc(Nc3ccc(Oc4ccccc4)cc3)c2cc1OC | inconclusive: 0.259 µM [cytotoxic, full curve] | active: 0.291 µM |  |  |
| O=C(COc1ccc(C(=O)c2ccccc2)cc1)NC1CCN(Cc2ccccc2)CC1 | active: 9.2 µM | active: 7.31 µM |  |  |
| CC(C)NC(=O)c1ccc(C#Cc2ccncc2)cn1 | inconclusive: 25.9 µM [cytotoxic, single point] | inconclusive: 29.1 µM [cytotoxic, single point] |  |  |
| CC1CCCC(SCC(O)C(=O)O)CC(=O)c2c(O)cc(O)cc2CC(=O)O1 (centres undefined) | inconclusive: 4.47 µM [cytotoxic, partial curve] | active: 2.24 µM |  |  |
| O=C(Nc1cccc(C(F)(F)F)c1)c1cccc2cc(Oc3cc(CO)ncn3)ccc12 | inconclusive: 7.42 µM [cytotoxic, partial curve] | inconclusive: 14.8 µM [cytotoxic, partial curve] |  |  |
| COCCOCCOc1ccc(C2=N[C@@](C)(C(=O)O)CS2)c(O)c1 | inconclusive: 14.6 µM [cytotoxic, single point] | inconclusive: 18.4 µM [cytotoxic, single point] |  |  |
| CC(C)C(NC(=O)c1ccc(O)cc1)C(=O)N1CCCC1C(=O)Nc1c(O)cccc1C(=O)O (centres undefined) | inactive | inactive |  |  |
| C=C1CCC2(OC1)OC1CC3C4CC=C5CC(O)CC(O[C@@H]6OC[C@H](OC(=O)C(O)C(C)CC)[C@H](O)[C@H]6O[C@@H]6O[C@@H](C)[C@H](O)[C@@H](O)[C@H]6O)C5(C)C4CCC3(C)C1C2C (some centres undefined) |  | inconclusive: 2.19 µM [cytotoxic, partial curve, poor fit] | inactive: 76.1% [at 9.25 µM] |  |
